Reference: the supplement of paper PMC4466236
The full ranking holds about 33,000 sequences; the median of “E-score (dimensionless, -0.5 to 0.5)” is about -0.058, and the highest 2% start at about 0.35. The list shows a part of the results.

Test system: MvaT
Test: PBM 8-mer E-score (mean of HK and ME arrays) (E-score (dimensionless, -0.5 to 0.5)); higher = stronger relative binding preference; most listed sequences are background and not binding sites
Summary of the method: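 Reported values are rank-based E-scores, taken as the mean of two universal arrays and parsed with a custom script. Each 8-mer score falls between -0.5 and 0.5. The arrays, ME and HK, were double-stranded 60-mers with a constant 25-mer primer region and a variable 35-mer region covering all 8-mers. They were probed, by an earlier protocol, with full-length P. aeruginosa MvaT carrying an N-terminal glutathione S-transferase fusion.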

Sequence	PBM 8-mer E-score
CCGCAACA	0.104
CGCATCAG	-0.0967
CCGTTCTA	-0.079
ATGTAGCC	-0.0913
ACATTGGA	0.00833
ACGAAGCT	-0.0324
AGAGCCGC	-0.301
ATTTAATG	0.376
ATGATCAA	0.176
GGTCCTAC	-0.157
ATCAACCA	-0.0164
CCGAGCCG	-0.237
CCGGTTAC	-0.0289
AGCGCTGA	-0.188
CATGGCAG	-0.207
GCTGATCA	-0.157
TATTGAAA	0.235
ATTCTTGA	0.0466
ATTGCCCG	0.0369
ACGAAACT	0.209
AGAGGGCA	-0.141
GCGCCCAC	-0.255
ATAGCGAC	-0.0463
ACATGTCT	0.0552
AAAGTGAG	0.0697

Sequence	PBM 8-mer E-score
ATTCGTCC	-0.154
ATATACGA	0.323
CGCAGCGC	-0.161
GAACCGCA	-0.0436
AACCTAGA	-0.0235
ATGACTGA	-0.0447
AAGCAACG	-0.105
CGCATTCA	0.0227
GTCTCTTA	0.0121
CTAGTGGA	-0.157
AATGCTAC	-0.0157
CCTTGGCG	-0.22
CGAATAGA	0.00156
ACTTATTA	0.416
ACCAGTTC	-0.15
CATAAGCG	0.000885
GCACTCGA	-0.153
CTTCCACC	-0.218
CCGGTACG	-0.374
AGGAGTAA	-0.132
GAGCTTAA	-0.0447
ATGCTATG	-0.0899
GCTGTTCC	-0.188
ATCAGGGA	-0.207
AAGTTGGC	0.172

Sequence	PBM 8-mer E-score
CGTGTGAC	-0.24
GCCATCCA	-0.185
ATCTAGTA	0.0157
GTCCGTAA	0.084
CCGGAGAA	-0.235
CATCGAAG	-0.071
AATTCTGG	0.076
ATTCGTGC	0.0844
AACAACCC	-0.0267
CTGTCCTA	-0.112
GATTCGTA	0.0196
ACTAGTCG	-0.0839
CCCCTTAG	-0.251
ACTCTAAG	0.0181
CGATTGCA	0.0134
AAGTGCTG	-0.134
AAAGGCTT	-0.0599
AATGTTGA	0.0817
TGATAGAA	0.186
GATTCTTA	0.0999
TCTCCAAA	-0.0267
ACTCATTC	-0.0371
GTATATTA	0.438
CGCTATCC	-0.149
AGGTCTAC	-0.196

Sequence	PBM 8-mer E-score
CTACCCTA	-0.137
CCAGACAA	-0.0578
TACTACGA	0.133
TAACCCGA	0.0362
TCCTCTAA	0.0632
TAGGGTGA	-0.102
GGTCACAC	-0.173
ACGACTTA	0.139
GACTGCAC	-0.245
CTGAAGAC	-0.085
CCGAGTAA	0.013
CAGCACCG	-0.196
AAGGGATC	-0.25
CGGAGATA	-0.0357
AGTCCAGA	-0.101
AGGAGCTA	-0.0876
ATCCCGTA	-0.0399
ATCGGGAC	-0.109
CGTCTCCA	-0.222
ACAAATAC	0.247
ACATCTTG	-0.000188
AGATATTC	0.209
AATAAACG	0.328
CAGAGTGC	-0.202
AGCCTCTA	-0.137

Sequence	PBM 8-mer E-score
CCCACCCC	-0.408
AACAGGGA	-0.115
CGAATGCA	-0.0445
CATGTGTA	0.0855
AGGCCAAG	-0.132
AGGAGCAC	-0.249
AACCCTAC	-0.0186
ATGGACCC	-0.172
ATTATACG	0.274
GTTTACAA	0.154
CTCATTAC	0.0726
TCCGCCAA	-0.112
GGCATGCA	-0.0713
ACGGCCTC	-0.15
ACTTGCTG	0.0741
GGCTCGTA	-0.206
AGCGCTGC	-0.264
CAACACAA	0.164
ATAACATG	0.235
ACCCAATA	0.151
CCGACGCA	-0.181
AACCGGAA	0.0189
GCGCGGCC	-0.244
ACGCCCTG	-0.211
CATGCGCA	-0.0842

Sequence	PBM 8-mer E-score
AATGGGCT	-0.0758
TGGGGTAA	0.0888
GCTTTAAA	0.249
AAGAGGGG	-0.237
CCGCGTCG	-0.0685
ATACATAT	0.394
AATGTAAG	0.293
ACGCAGGA	-0.268
GATAATAC	0.301
CCCTCACC	-0.0385
CGCAAATA	0.181
GGGCGTCA	-0.218
GCCGCCAA	-0.22
GATTTCAC	-0.0165
ACGAAATC	0.0397
AGTCGAAC	-0.0143
GAACATGC	-0.0289
CAATCGCC	-0.139
AGCGATCG	-0.212
ATCAGCAC	-0.0229
AATTCAAT	0.294
CAATACGG	0.0192
CCGTCGCA	-0.136
ACTAGCTC	0.00464
GCGCGTCA	-0.141

Sequence	PBM 8-mer E-score
CCGTCTCA	-0.119
AATTTATA	0.46
CATGAAGG	-0.184
ATTGGAGG	-0.0643
CATTCGGG	-0.0224
AGCAAGTG	0.016
CTTGTTAC	0.143
ATGGTTAA	0.236
ATGCGACC	-0.244
CGACTACC	-0.19
GCATCCAA	-0.0952
AAGGCCTT	-0.0932
ATCTCGGG	-0.161
GCAGACCA	-0.131
ACGCGACA	-0.0585
GCACTTTA	0.14
ACTCCTGC	-0.156
AAGCAGAG	-0.172
GTTTACCA	0.0668
ATCGATAG	0.147
CATCTTAG	-0.0403
ATCACCTC	-0.0894
